# The campaign covered roughly 110,000 compounds. About 40 (0.04%) were called active. This list was built around the results that the source calls inconclusive (neither active nor inactive); the mix of calls is not that of the screen. Calls come from the whole dose curve; as a rule, active = well fitted curve in the direction sought with a large enough effect in the signal ratio (not every such curve was filed as active); inconclusive = small, poorly fitted or top-dose-only effect, or a change in a side signal; inactive = flat fitted curve, though single readings scatter; the % refers to the signal ratio. A potency beside an inconclusive call is a rough fit, not a confirmed value.
# Experiment: IkB Signaling;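 for IkBa stabilization activation: 0% = basal untreated cells and 100% = reference inhibitor full response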
# Conditions: ABC-DLBCL IkBa-CBG/CBR dual luciferase ratio (green luciferase fused to IkBa over red control in OCI-Ly3 lymphoma cells), 4 h; IkBa stabilization activation: at 57.1 µM (top of the series), scaled: untreated 0%, proteasome inhibitor 100% unless noted
# Method in brief: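 Luminescence ratio of IκBα-fused green versus native red beetle luciferase in OCI-Ly3 cells, 4 h post-doxycycline with compound; red signal alone, scaled from basal (0%) to zero light (-100%), flagged nonspecific or cytotoxic effects.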
# Potency is the fitted concentration of half-maximal effect.
SMILES,IkBa stabilization activation,Potency
Cc1cc(C)nc(N(C#N)CN2C(=O)c3ccccc3S2(=O)=O)n1,inconclusive: 7.4% [signal activator],–
Cc1[nH]c2c(C)cccc2c1CCNC(=O)c1cc2ccccc2oc1=O,inactive,–
CCc1nc(SCC(=O)Nc2nccs2)c2oc3ccccc3c2n1,inactive,–
OC(CCN1CCOCC1)(c1ccc(Cl)cc1)C1CCCCC1 (configuration not stated),inactive,–
Cc1cccc(NC(=O)C2CCCN(S(=O)(=O)c3cccc4cccnc34)C2)c1 (configuration not stated),inconclusive: 7.57% [signal inhibitor],–
CC(C)Oc1cccc(-n2c(CCc3c[nH]c4ccc(Br)cc34)nc3ccccc3c2=O)c1,inconclusive: 0.569% [signal inhibitor],–
COC(=O)c1ccc(NC(=O)C2CCN(S(=O)(=O)c3ccc4c(c3)CCCN4C(C)=O)CC2)cc1,inconclusive: 1.28% [signal inhibitor],–
COc1cc(NC(=O)CSc2nc3nc(C)c(Cc4ccccc4)c(C)n3n2)cc(OC)c1OC,inconclusive: 1.57% [signal inhibitor],–
CCc1nnc2n1N(C(C)=O)C(c1ccc(C(C)(C)C)cc1)=C(C(C)=O)S2,inconclusive: 2.16% [signal inhibitor],–
Cc1ccc(NC(=O)NC(=O)CN2C(=O)NC3(CCc4ccccc43)C2=O)c(C)c1 (configuration not stated),inconclusive: 2.23% [signal inhibitor],–
CCOC(=O)c1cc2c(=O)n3ccccc3nc2n(CC2CCCO2)c1=NC(=O)c1cc(C)cc(C)c1 (configuration not stated),inconclusive: 2.34% [signal inhibitor],–
CCOc1cc(NC(=O)c2ccco2)c(OCC)cc1NC(=O)c1cc(OC)c(OC)c(OC)c1,inconclusive: 6.36% [signal inhibitor],–
Cc1[nH]c2ccccc2c1C1(O)C(=O)N(Cc2ccc(Cl)cc2)c2ccccc21 (configuration not stated),inconclusive: 4.93% [signal inhibitor],–
CCc1cccc(C)c1Nc1c(-c2cccc(O)c2)nc2sccn12,inconclusive: -2.46% [signal inhibitor],–
COc1cc(-c2nnc(SCC(=O)Nc3cccc(C#N)c3)o2)cc(OC)c1OC,inconclusive: 8.82% [signal inhibitor],–
NC(=S)c1ccc[n+]([C@@H]2O[C@@H](COP(=O)([O-])OP(=O)(O)OC[C@@H]3O[C@@H](n4cnc5c(N)ncnc54)[C@@H](OP(=O)(O)O)[C@H]3O)[C@@H](O)[C@H]2O)c1,inactive,–
CCOC(=O)C1CCCN(S(=O)(=O)c2ccc3c(c2)N(C)C(=O)CC(=O)N3C)C1 (configuration not stated),inconclusive: 2.19% [signal inhibitor],–
COCCn1c(=O)c(-c2cccs2)nc2cnc(Oc3ccccc3)nc21,"inactive: -1.71% [at 11.4 µM, scaled: untreated 0%, proteasome inhibitor 100%]",–
CCc1ccc(CNC(=O)c2cnc3sc(N(CC)CC)nn3c2=O)cc1,inactive,–
COCCCNC(=O)Cn1c(=O)n(-c2ccc(Cl)cc2)c(=O)c2c3c(sc21)CCCCC3,inactive,–
Cc1cccc(NC(=O)CSc2nnc(-c3cc(C)n(-c4ccccc4)c3C)o2)c1C,inconclusive: 1.66% [signal inhibitor],–

SMILES,IkBa stabilization activation,Potency
CC(C)(C)Nc1c(N)c(=O)oc2ccccc12,inconclusive: 13.2% [signal inhibitor],–
CCOc1ccc(-n2c(=O)c3sc4ccccc4c3n(Cc3ccc(F)cc3)c2=O)cc1,inactive,–
CC(C)c1cnc2c(c1SCC(=O)Nc1cccc([N+](=O)[O-])c1)c(=O)n(C)c(=O)n2C,inconclusive: 4.3% [signal inhibitor],–
CCCCC(CC)Cn1c(Oc2ccccc2)nc2c1c(=O)n(C)c(=O)n2C (configuration not stated),inconclusive: -0.541% [signal inhibitor],–
Cc1cc(C)c(NC(=O)C(=O)NCC(c2cccnc2)N2CCN(c3ccccc3F)CC2)c(C)c1 (configuration not stated),inconclusive: 1.18% [signal inhibitor],–
CCc1cccc(NC(=O)c2cc3c(s2)-c2ccccc2OC3)c1,inconclusive: 6.03% [signal inhibitor],–
CC(=O)Nc1cccc(NC(=O)CSc2nccn2C2CCCC2)c1,inconclusive: 0.32% [signal inhibitor],–
Cc1ccc(CNC(=O)c2cc3c(-c4ccc(Cl)cc4)nn(C)c3s2)o1,inconclusive: 5.8% [signal inhibitor],–
CN(Cc1ccccc1)c1ccc(-c2nc(-c3ccccc3)no2)cc1[N+](=O)[O-],inconclusive: 3.74% [signal inhibitor],–
CCCCOC(=O)Nc1ccc(C(=O)OCCC)cc1,inactive,–
COC(=O)c1ccc2c(=O)n3nc(Nc4cc(OC)ccc4OC)sc3nc2c1,inconclusive: 0.973% [signal inhibitor],–
CCOc1cc(S(=O)(=O)N2CCN(Cc3ccccc3)CC2)ccc1Br,inconclusive: 4.37% [signal inhibitor],–
CCC(Sc1ncc(S(=O)(=O)c2ccc(Cl)cc2)c(=O)[nH]1)C(=O)Nc1ccc(OC)cc1 (configuration not stated),inconclusive: 1.5% [signal inhibitor],–
Cc1ccc2[nH]c(=O)c3cc(C(=O)N(CCCOC(C)C)Cc4ccco4)sc3c2c1,inconclusive: 7.88% [signal inhibitor],–
COc1ccc(Cl)cc1NC(=O)CSc1nnc2[nH]c(=O)cc(-c3ccccc3)n12,–,inconclusive: 3.98 µM [signal inhibitor]
O=C(O)CCCn1nc(-c2ccccc2)c2ccccc21,inactive,–
CCC(c1nnnn1C1CCCC1)N(Cc1cccs1)Cc1cc2cc(C)ccc2[nH]c1=O (configuration not stated),inconclusive: 13.6% [signal inhibitor],–
COc1ccccc1N1CCN(C(=O)c2ccc3c(=O)n(Cc4ccco4)c(=S)[nH]c3c2)CC1,inconclusive: 3.48% [signal inhibitor],–
CN(CC(=O)Nc1ccc(Br)cc1)S(=O)(=O)c1cccc2nsnc12,inconclusive: 0.514% [signal inhibitor],–
COc1ccccc1N1CCN(C(=O)c2cccc(N3C(=O)NC4CC3(C)Oc3ccccc34)c2)CC1 (configuration not stated),inconclusive: 1.28% [signal inhibitor],–
Cc1cc2oc(C(=O)N(Cc3ccc(N(C)C)cc3)CC3CCCO3)c(C)c2cc1Cl (configuration not stated),inactive,–
